Read counts are not given, so values of variants with three or more changes are uncertain.

Consider 56 variants from the RNAGym collection of RNA variant scans (doi:10.7554/elife.90254).

Sequences and labels used below:
B1: LINE1-mini (parent)
chain: GGCAGAGCUCAACACAGCGUGGCAAAGUGGCUGUGGCUAGACUGCC

Variants of B1 are the subject of this data set. Briefly: self-cleavage, relative activity (ratio to wild type); higher = more cleavage; in vitro, sequencing; the parent is a self-cleaving ribozyme.
Turning to AGCAGAGCUAAACACAGCGUGCCAAAGUGGCUGUGGCUAUACCGCC [G1A C10A G22C G40U U43C], the self-cleavage is 0.
Take GACAGAGUUCAAAACAGCGUGGCAAAGUGGCUGUGGCUAGACUGCC [G2A C8U C13A]: the self-cleavage stood at 0.6.
The value for GGCAGAGCUCAACACAGCGUGGCAAAGUAUCUGUGGCUAGAAUGUC [G29A G30U C42A C45U] was 0.09; that for GGCAGAGCUCAACACUUCGUGGCAAAGUGGCUGUUUCUAGACUGCC [A16U G17U G35U G36U] was 0; that for GGCAGAGCUCAACACAGUGUGGCAAAGUGGCUCUGGCUAGACUAUC [C18U G33C G44A C45U] was 0.
In the case of GUCAGAGCUCAACACUGCGUGGCAAAGUGGCUGUGGCUAGACAGCA [G2U A16U U43A C46A], the self-cleavage came to 0.01.
For GGGAGAGCUCAACAGAGCGUGGCAAAGUGGCUGUGUCUAGACUGCC [C3G C15G G36U], the self-cleavage came out at 0.09.
The value for GACAGAGCUCAACAGAUCGUGGCAAAGUGGCUGUGGCAAGACUGCC [G2A C15G G17U U38A] was 0.01; that for GUCAGAGCUCAACCCUGUGUGGCAAUGUGGCUGUGGCUAGACUGCC [G2U A14C A16U C18U A26U] was 0.01; that for GGCAGAGCUCAACACAGCAUGGCAUAGUGGCUUUUGCUAGACUGUC [G19A A25U G33U G35U C45U] was 0.08.
Take GGCAGAGCUCAACACAGCGGGGCCAAGUGGCUGUGGCAAGACUCCC [U20G A24C U38A G44C]: the self-cleavage was determined as 0.08.
The figure for GGCUGAGCUGAACAUAGCGAGGCAAAGUGUCUUUGGCUAGACUGCC [A4U C10G C15U U20A G30U G33U] is 0.02; for GGCAGCGCUCAACACAGCGUGGCAUAGUAGCUGGGGCUAGACUGCC [A6C A25U G29A U34G] it is 0.4.
The figure for GGCAGAGCUCAACACAGCGUUGCAAAGUUGCUGUGGUUAGACUGCC [G21U G29U C37U] is 0.01; for GGCAGAACUCAACACAGCGUGGCAAAUUGGCUGUGGCUACACUGCC [G7A G27U G40C] it is 0.11.
For GACCGAGCUCAACACAGUGUGCCAAAGUGGCUUAGGCUAGACUGCC [G2A A4C C18U G22C G33U U34A], the self-cleavage was determined as 0.08.
With GACAGAGCUCAACACAGCGUGGCAAAGUUACUGUGGCUAGACUGCC [G2A G29U G30A], the self-cleavage was 0.34.
The figure for GGUGGAGAUCAACACAGCGUAGCAAAGUAGCUGUGGCCAGCCUGCC [C3U A4G C8A G21A G29A U38C A41C] is 1.06.
The value for GGCAGAGCUCAACACAGAGUGGCAAAGUGGCAGUGGCUAGACUGUC [C18A U32A C45U] was 0.
The value for GGAGGAGUUCAACACAGCGUGGCAAAGUGGCUGUGGCUAGACUGCC [C3A A4G C8U] was 0.23.
In the case of GCCAGAGUUCAACACAGCGUGGCCAAGUGGAUGUGGCUAGACUGAC [G2C C8U A24C C31A C45A], the self-cleavage was found to be 0.25.
The value for GGCAGAGCUCAACACAGCGGGGCUAACUGGCUGUGGCUAGACUGCC [U20G A24U G27C] was 0.3.
As to GGCUGAGCUCAUCACAGCGUGGCAAAGUUGCUGUUGCUAGACUGCC [A4U A12U G29U G35U], the self-cleavage came out at 0.14.
For the variant GGCAGAGCUCAACACAGGGUGCCAAACUGGCUGUGACUAGACUGCC [C18G G22C G27C G36A], the self-cleavage stood at 0.17.
The value for GGCGGAGCUCAACACAGCGUGACAAAGUGGCCGUGGCUAGACUGCC [A4G G22A U32C] was 0.22.
With GCUAGAGCUCAACACCGCUUGGCAAAGUGACUGUGGCUAGACUGCC [G2C C3U A16C G19U G30A], the self-cleavage worked out at 0.07.
Regarding GGCGGAGCUCAACACAGCGUGUCAAAGUGGCUGUGAGUAGACUGCC [A4G G22U G36A C37G], the self-cleavage is 0.01.
The value for GGGAGAGCCCAACACAGCGUGGCAAAGUGGCUGUGGCUAGAUUGCC [C3G U9C C42U] was 0.07; that for AGCAGAGCUCAACACAGCGUGCCAAAUUAGCUGUGGCUAGACUGCC [G1A G22C G27U G29A] was 0.6.
With GUCAAAGCUCAACGCAGCGUGGCAAAGUGGCUGUAGCUAGACUGCC [G2U G5A A14G G35A], the self-cleavage was 0.
Consider GGCAGAGAUCAACUCCGCGUGGCAAAAUGGCUGUGGCUAGACUGCC [C8A A14U A16C G27A], for which the self-cleavage is 0.31.
The value for GGUAGAGCUCAACGCAGCGUGGCAACGUGGCUGCGGCUAGACUGCC [C3U A14G A26C U34C] was 0.05; that for CGAAGAGCUCAACACAGCGUGGCAAAGUGGCUGUGGCUAGUCUGAC [G1C C3A A41U C45A] was 0.21; that for GGCAGAGCUCAACACAGCGUGGCAAAUUGGAUGUAGCUGGACUGCC [G27U C31A G35A A39G] was 0.06.
The figure for GGAAGAGCUCAACACAGCGUGCCAAACUGGCGGUGGUUAGACUGCC [C3A G22C G27C U32G C37U] is 0.27; for GGCAGAGCUCACGAAAGCGUGUCAAAGUGCCUGUGGCUAGGCUGCC [A12C C13G C15A G22U G30C A41G] it is 0.03; for GGCAAAGCUGAACACAGCGUGGCAAAGUGGCUGUGGCUAGAAUGCA [G5A C10G C42A C46A] it is 0.02.
The value for GGCAGAGCUCAACACAGCGGGGCAAAGUGGCUGUCGCUAGACUGGC [U20G G35C C45G] was 0.03; that for GGGAGAGCUCAACACUGCGUGGCAAAGUGGAUGUGGCUAGACUGCC [C3G A16U C31A] was 0.03.
On to CGCCGUGCUCAUCACAGCUUGGUAAAGUGGCUGUGGCUAGACUGCC [G1C A4C A6U A12U G19U C23U], for which the self-cleavage was determined as 0.11.
The figure for GGCUGAGCUCGACACAGCGUGGCAUAGUGGUUGUGGCUAGACUGCC [A4U A11G A25U C31U] is 0.03.
As for GGCAGAGCUCCACACAGCGUUGCAAAGUGGCUGUGGCUAGUCUGCC [A11C G21U A41U], the self-cleavage came out at 0.02.
On to GACAGAGAUCAACACAUCGUGGCAAAGUGGCUGUGGCUAGACUGCC [G2A C8A G17U], for which the self-cleavage is 0.16.
The figure for GCCAGAGCUCAACAGAGCGUGGCAAAGUGGCUGUGGCUAGGCUGAC [G2C C15G A41G C45A] is 0.01; for GGCAGAGCUCAUCACAGCCUGGCAAAGUGGCUGUGGCUAGCCUGCC [A12U G19C A41C] it is 0.03; for GGCACAGCUCAACACCACGUGGCGAAGUGGCUGUGGCUAGACUGCC [G5C A16C G17A A24G] it is 0.06.
Consider GGCAGAGAUCAACACAGUGUGGCAAAGCGGAUGUGGCUAGACUGCC [C8A C18U U28C C31A], for which the self-cleavage turned out to be 0.09.
For the variant GGCAGAGCUCAAAACAGCGUGGCAAACUGACUGCGUCUAGACUGCC [C13A G27C G30A U34C G36U], the self-cleavage is 0.05.
The figure for GACAGAGCUCAAUACAGCGUGGCAAAGUGGCUGUGGCUAGAGUGCC [G2A C13U C42G] is 0.08; for GGCAGAGCACAACACAGGGUGGCAUUGAGGCCGUGGCUAGACUGCC [U9A C18G A25U A26U U28A U32C] it is 0.08; for GGCACAGCUCAACACAGUGUGUCAUAGUGGCUGUGGUUAGACUGGC [G5C C18U G22U A25U C37U C45G] it is 0.02.
The figure for GGCAGAGCUAAACACAGCGUGGCAAAAUGGCUGUGGCUAGUCUGCC [C10A G27A A41U] is 0.01; for GGCACAGCUCAACACAGCGUGGCAAAGUGGCUGUGGAUAGACUGGC [G5C C37A C45G] it is 0.02.
The figure for GGCAGAGCGCAACACAGCUUGGCAAAGUGUGUGUGGCUAGACUACC [U9G G19U G30U C31G G44A] is 0.01; for GGCAGAGCUCUACACACCGCGGCAAAGUGGCUGUGGGUAGACUGCC [A11U G17C U20C C37G] it is 0.
Take UGAAGAGCUCAACACAGCGUGACAAAGCGGCUGUGGCUAGACUGCC [G1U C3A G22A U28C]: the self-cleavage is 0.14.
